{"source": "patent US20230203142A1", "about": "(published 2023)", "key": {"[1]": {"target": "T1, human ADK (adenosine kinase), recombinant (UniProt P55263 2-362)", "T1 sequence (P55263 2-362)": "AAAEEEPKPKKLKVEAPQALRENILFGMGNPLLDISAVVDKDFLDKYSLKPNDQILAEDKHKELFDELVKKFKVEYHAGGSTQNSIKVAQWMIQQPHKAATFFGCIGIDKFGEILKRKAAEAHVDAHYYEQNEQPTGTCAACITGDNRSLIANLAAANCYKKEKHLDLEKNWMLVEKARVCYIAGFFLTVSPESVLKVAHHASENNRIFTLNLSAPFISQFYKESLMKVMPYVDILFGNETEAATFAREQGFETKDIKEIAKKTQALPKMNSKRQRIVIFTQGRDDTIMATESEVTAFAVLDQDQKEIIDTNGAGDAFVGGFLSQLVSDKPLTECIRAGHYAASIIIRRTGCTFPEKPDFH", "experiment": "MST"}, "[2]": {"target": "T1, human ADK (adenosine kinase), …", "experiment": "MST", "remark": "listed apart in the source"}}}
{"binder": "human NDPK-A (nucleoside diphosphate kinase A), full-length recombinant (enzyme) not shown", "values": [{"measurement": "Kd", "setting": "[1]", "value": 2, "unit": "nM"}, {"measurement": "EC50", "setting": "[2]", "value": 2, "unit": "nM"}]}
